# Measurements from PubChem BioAssay AID504832 (National Center for Advancing Translational Sciences (NCATS), 2011).
# Hit rate of the full screen: of about 310,000 compounds, about 18,000 (5.8%) were called active. The inconclusive results got no clear call from the source; some entries with a clear call stand among them for comparison. Calls follow the shape of the dose curve; as a rule, active = well fitted inhibition curve with a large enough effect; inconclusive = small, poorly fitted or top-dose-only effect, or another doubt; inactive = no such curve, though single readings can be large or run the other way. No potency is given beside an inconclusive call; the fits are too rough.
# Assay: Primary qHTS for delayed death inhibitors of the malarial parasite plastid, 48 hour incubation
# Settings: P. falciparum luciferase growth in erythrocytes; series mostly up to 28.7 µM; activity change, negative = inhibition: at the top concentration
# How it was run: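 Here the parasites carry a stable luciferase gene and grow inside erythrocytes in Albumax-based RPMI medium with compound for one erythrocytic cycle. Activity is scored as loss of luminescent signal.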
# % is scaled to controls: 0 for no effect and ±100 for the full control effect; potency is read from the fitted curve at half-maximal effect; tags tell the direction and shape of the fitted curve.
Structure (SMILES),Potency,"activity change, negative = inhibition"
Cc1cc(N=Cc2c(O)n(-c3cccc(C(F)(F)F)c3)c(=O)c3ccccc23)no1,"inconclusive [inhibitor, single point]",
Cc1ccccc1OCC(=O)Nc1ccc2[nH]ncc2c1,,inactive: 23.1%
Cc1ccc(S(=O)(=O)N2CCN=C2SCc2c(F)cccc2Cl)cc1,,inactive: -16.6%
O=C(Nc1ccccn1)c1ccc(S(=O)(=O)c2ccc(Cl)cc2)cc1,"inconclusive [inhibitor, partial curve]",
COc1cc(-c2c(-c3cccc(C)c3)oc3ccccc23)cc(OC)c1OC,"inconclusive [inhibitor, single point]",
Cc1ccccc1NCC(=O)N/N=C\c1ccc([N+](=O)[O-])s1,active: 9.28 µM,
CC(C)(C)c1cc(CN2CCCC(O)C2)c(O)c(C(C)(C)C)c1 (stereo not given),"inconclusive [inhibitor, single point]",
N#CCCN(C(=O)CO/N=C/c1cccc([N+](=O)[O-])c1)c1ccccc1,"inconclusive [inhibitor, partial curve]",
CCOC(=O)c1c(C)[nH]c(C(=O)Nc2cc(OCC)c(N3CCOCC3)cc2OCC)c1C,active: 2.94 µM,
COc1ccc(N(Cc2ccco2)C(=O)c2ccccc2F)cc1OC,"inconclusive [inhibitor, partial curve]",
N#CCCCSc1nnc(CSc2nc3ccccc3s2)n1-c1ccccc1,"inconclusive [inhibitor, partial curve, poor fit]",
COc1ccc2[nH]c(=O)c(CN(Cc3ccc(C)cc3)Cc3nnnn3CC3CCCO3)cc2c1 (stereo not given),"inconclusive [inhibitor, partial curve, poor fit]",
COc1ccc(CC(=O)Nc2ccccc2NC(=O)Cc2ccc(OC)cc2)cc1,active: 6.57 µM,
COC(=O)c1[nH]c2ccc(C)cc2c1NC(=O)CN1CCc2cc(OC)c(OC)cc2C1,"inconclusive [inhibitor, partial curve, poor fit]",
CN(c1ncnc(N)c1[N+](=O)[O-])C1CCS(=O)(=O)C1 (stereo not given),,inactive: -4.12%
O=C1NC(=O)C(CCc2ccccn2)(Cc2ccc3c(c2)OCO3)C(=O)N1CCc1ccccc1 (stereo not given),"inconclusive [inhibitor, single point]",
COc1ccc(-n2nc3c(c2NC(=O)COc2ccccc2F)CS(=O)(=O)C3)cc1,"inconclusive [inhibitor, single point]",
CC(C)C(=O)N1CCN(CCN=Cc2c(O)n(C)c(=O)n(C)c2=O)CC1,"inconclusive [inhibitor, single point]",
COc1cc(SC#N)ccc1N=Cc1c(C)[nH]n(-c2ccc(C)cc2C)c1=O,"inconclusive [inhibitor, single point]",
COc1ccc(NC(=O)CSc2ccc(-c3ccccn3)nn2)cc1OC,"inconclusive [inhibitor, single point]",
Cc1ccc(NC(=O)CCC(=O)N2CCC(c3ccccc3)=N2)cc1S(=O)(=O)N1CCCCC1,"inconclusive [inhibitor, single point]",
O=C(Cn1c(CN2CCCCC2)nc2ccccc2c1=O)NC1CCCCC1,"inconclusive [inhibitor, partial curve]",

Structure (SMILES),Potency,"activity change, negative = inhibition"
COc1cccc(N(C(=O)c2cccs2)c2nc3ccccc3s2)c1,"inconclusive [inhibitor, single point]",
CCOc1ccc(C2C(C(=O)OC)=CN(CCOC)C=C2C(=O)OC)cc1,"inconclusive [inhibitor, partial curve]",
COc1ccc(C2CC(=O)C(C(c3ccc(O)cc3)C3C(=O)CC(c4ccc(OC)cc4)CC3=O)C(=O)C2)cc1 (stereo not given),"inconclusive [inhibitor, full curve, poor fit]",
O=c1[nH]c(C2CCCN(S(=O)(=O)c3cccc(Cl)c3)C2)nc2c1nnn2Cc1ccc2c(c1)OCCO2 (stereo not given),"inconclusive [inhibitor, partial curve, poor fit]",
CC(C)Oc1ccc(S(=O)(=O)N2CCOCC2)cc1NC(=O)CCCSc1ccccc1,"inconclusive [inhibitor, single point]",
O=S(=O)(c1cccc(-c2csc(-c3cccnc3)n2)c1)N1CCOCC1,"inconclusive [inhibitor, single point]",
CCCCNC(=O)NC(C(=O)OC)C12CC3CC(CC(C3)C1)C2 (stereo not given),"inconclusive [inhibitor, single point]",
CC(Sc1ccccc1)C(=O)Nc1ccccc1C(=O)N1CCOCC1 (stereo not given),,inactive: 0.655%
Cc1oc(C(C)(C)C)cc1C(N)=O,"inconclusive [inhibitor, partial curve, poor fit]",
Cc1nc2ccccn2c1C(=O)NN=C1C2CC3CC(C2)CC1C3,,inactive: -0.718%
C=CCNC(=O)c1ccccc1S(=O)c1ccccc1C#N (stereo not given),,inactive: 9.97%
O=C(Nc1ccc(F)c(S(=O)(=O)N2CCOCC2)c1)C1CCCCC1,active: 13.1 µM,
COC(=O)c1cn(NC(=O)C2CCC(C)CC2)c(=O)c2ccccc12 (stereo not given),"inconclusive [inhibitor, partial curve]",
O=C(NS(=O)(=O)Oc1ccc(F)c(Cl)c1)OC[C@@H]1CCCN2CCCCC12 (stereo not given in full),,inactive: -1.61%
O=C(c1cn(Cc2ccccc2)nc1-c1cccnc1)N1CCc2ccccc2C1,"inconclusive [inhibitor, single point]",
Cn1cc(NC(=O)Nc2ccc(C(F)(F)F)cc2)c(C(F)(F)F)n1,"inconclusive [inhibitor, single point]",
CC1(C)CC(=O)C(C=NCCN2CCN(C(=S)Nc3cccc(Cl)c3)CC2)=C(O)C1,"inconclusive [inhibitor, single point]",
Cc1c(C(=O)N/N=C/c2ccc(Cl)cc2)[nH]c2ccc(Cl)cc12,,inactive: 0.827%
COc1ccc2[nH]c(C)c(CCN(Cc3cccs3)C(=S)Nc3ccccc3OC)c2c1,active: 11.7 µM,
Cc1ccc(S(=O)(=O)N2CCOCC2)cc1NC(=O)C1CC(=O)N(c2ccc3c(c2)OCCO3)C1 (stereo not given),"inconclusive [inhibitor, partial curve]",
CCC1CCCCN1CCCNC(=O)C1CCN(Cc2nc(-c3ccc(Cl)cc3)oc2C)CC1 (stereo not given),active: 5.22 µM,
CC1Cc2cc(S(=O)(=O)N3CCCC(C(=O)N4CCCCC4)C3)ccc2N1C(=O)C1CC1 (stereo not given),active: 13.1 µM,

Structure (SMILES),Potency,"activity change, negative = inhibition"
CC(CNS(=O)(=O)c1cc(Cl)ccc1Cl)CN(C)C (stereo not given),,inactive: 2.2%
COCCN(C(=S)Nc1ccccc1OC)C1CCN(C(C)=O)CC1,"inconclusive [inhibitor, full curve, poor fit]",
O=C(NCc1nnnn1-c1ccc(F)cc1)C1CC(=O)N(c2ccc(F)cc2)C1 (stereo not given),,inactive: 2.38%
COc1ccc(Cl)cc1NC(=O)CN(C)C(=O)CCNC(=O)c1ccccc1OC,"inconclusive [inhibitor, single point]",
CC(C)(C)OC(=O)NCCCCCNC(=O)c1[nH]cnc1C(=O)N[C@@H](CCCCNC(=O)OC(C)(C)C)C(=O)OC(C)(C)C,active: 9.28 µM,
COCCNC(=S)Nc1ccccc1Cc1ccccc1,"inconclusive [inhibitor, partial curve, poor fit]",
CCOC(=O)Cc1csc(NC(=O)c2c(O)c3ccccc3n(CCC(C)C)c2=O)n1,"inconclusive [inhibitor, single point]",
COc1cccc(NC(=O)CSc2nc3ccccc3c(=O)n2CCCC(=O)NCC2CCCO2)c1 (stereo not given),"inconclusive [inhibitor, partial curve, poor fit]",
CCC(C)NC(=O)CNC(=O)c1nn(-c2ccc(OC)c(Cl)c2)c(=O)c2ccccc12 (stereo not given),"inconclusive [inhibitor, single point]",
CCOC(=O)C1=C(C)NC(C)=C(C(=O)OCC)C1C(=O)OCC(=O)c1ccc2c(c1)OCCO2,"inconclusive [inhibitor, single point]",
O=C(N/N=C/c1ccc2ccccc2c1)c1ccc(COc2ccc3c(c2)CCC3)o1,"inconclusive [inhibitor, partial curve, poor fit]",
CCC(C)(C)NC(=O)C(c1cccnc1)N(C(=O)c1csnn1)c1ccc(C)cc1 (stereo not given),"inconclusive [inhibitor, single point]",
CN(CCOc1ccc(Cl)cc1)c1ccc(S(=O)(=O)N2CCCCC2)cn1,,inactive: -15.7%
COc1ccc(S(=O)(=O)NCC2CC3C=CC2C3)cc1OC (stereo not given),,inactive: -0.0294%
Cc1ccc(-c2[nH]c(=S)[nH]c(=O)c2C#N)cc1,,inactive: 7.37%
Cc1ccc(/C([O-])=C(/C(=S)NCc2ccco2)[n+]2ccccc2)cc1[N+](=O)[O-],active: 10.4 µM,
O=C(NCCO)c1cc2c([nH]c3ccccc32)c(-c2ccc(F)cc2)n1,"inconclusive [inhibitor, single point]",
COc1ccc(NC(=S)N(CCCN2CCOCC2)Cc2cn(C)c3ccccc23)cc1,"inconclusive [inhibitor, full curve, poor fit]",
CCc1sc(C(=O)N2CCc3cc(OC)c(OC)cc3C2CC(=O)O)cc1C (stereo not given),"inconclusive [inhibitor, single point]",
Cc1ccc(NC(=O)CS(=O)CC(=O)Nc2cnc3ccccc3c2)cc1Cl (stereo not given),,inactive: -5.07%
Cc1ccc(S(=O)(=O)N2CCCCC2)cc1C(=O)N1CCCCCC1,"inconclusive [inhibitor, single point]",
